Test results as given in US10336768B2, “Pyrimidine compounds and methods using the same” (Yuma Therapeutics, Inc., priority 2014, dated 2019).

Tested on: phosphorylated tau protein (p-Tau)
Experiment: Tau phosphorylation assay in SHSY5Y-hTau441V337M/R406W cell line
Description: Cells were treated with compounds of the invention for 24 h and then lysed in a buffer containing NP-40, orthovanadate, and protease inhibitors. Western blots were performed with antibodies specific to Hsp70, Hsp90, or actin (as control). Tau phosphorylation was assayed using, e.g., a method of Liu et al., Biochemistry, 49:4921-4929, 2010, with SHSY5Y-hTau441V337M/R406W cell line (Loeffler et al., J. Mol. Neurosci., 47:192-203, 2012). […] The functional assay described herein provides an in vitro model of tauopathy and can be used to evaluate the effect of Hsp90 inhibitors on phosphorylated tau protein (p-Tau).

## Nc1nc(-c2c(Cl)cc(Cl)c3c2CCO3)c2[nH]ccc2n1 [compound 20, 4-(5,7-Dichloro-2,3-dihydrobenzofuran-4-yl)-5H-pyrrolo[3,2-d]pyrimidin-2-amine]
At 0.05, 0.1, and 0.5 μM, FIG. 6C
  levels of pTau396: significant decreases in the levels of pTau396
At 0.1 and 0.5 μM, FIG. 6B
  levels of pTau231: significant decreases in the levels of pTau231
